# Results as given in PubChem BioAssay AID1240 (Sanford-Burnham Center for Chemical Genomics, 2008).
# In all, about 50,000 compounds went through this assay and about 800 (1.6%) showed an effect of 50% or more. The list shows a part of the results.
# Biological target: Bcl-2-like protein 10 (Homo sapiens) (UniProt Q9HD36)
# Assay: TR3 peptide-Bcl-B binding displacers, biochemical primary FP assay, phenotype converters (AID 1240);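 further: 0% = Bcl-B with tracer peptide and DMSO and 100% = tracer peptide lacking Bcl-B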
# Conditions: GST-Bcl-B / FITC-TR3 peptide fluorescence polarization; stronger effect = higher value; compound at 3.75 mg/L
# Sequence of UniProt Q9HD36 (Q9HD36 whole entry, looked up): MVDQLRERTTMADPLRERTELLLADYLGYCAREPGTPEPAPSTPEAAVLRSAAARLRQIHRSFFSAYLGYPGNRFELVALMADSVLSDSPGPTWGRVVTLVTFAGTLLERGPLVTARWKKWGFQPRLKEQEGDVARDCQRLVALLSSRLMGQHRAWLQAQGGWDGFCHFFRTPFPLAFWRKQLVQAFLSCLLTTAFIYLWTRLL
row,Compound,displacement
1,CC(C)(C)C(=O)Nc1ccc(C(=O)Nc2cccc(O)c2)cc1,-2.1%
2,COc1ccc(CNC(=O)c2ccccc2N(Cc2ccccc2)S(=O)(=O)c2ccc(C)cc2)cc1,-1.8%
3,CCC(C(C)=O)C(=O)Nc1ccccc1 (centres undefined),14.9%
4,COc1ccccc1NC(=O)c1cc(Nc2ccccc2)nc2ccccc12,13.2%
5,O=C(NCCc1ccccc1)/C(=C/c1ccc(-c2cccc([N+](=O)[O-])c2)o1)NC(=O)c1ccccc1,2.5%
6,CCCCN(CC)Cc1c(C)[nH]c2ccc(C)cc2c1=O,10.5%
7,Cc1ccc(NC(=O)C2CCCN2C(=O)C(C)(C)C)cc1 (centres undefined),3.9%
8,Cc1onc(-c2ccccc2)c1C(=O)NCCNc1c(Cl)cccc1[N+](=O)[O-],-1.3%
9,NC(=O)c1ccccc1NC(=O)c1ccc(Cl)cc1[N+](=O)[O-],-7.6%
10,COC(=O)c1c(NC(=O)c2cncc(Br)c2)sc2c1CCC(C)C2 (centres undefined),15.9%
11,O=C(CN1CCCCC1)Nc1ccc(I)cc1,-3.9%
12,COc1cc([N+](=O)[O-])ccc1-c1ccc(CO)o1,8%
13,CC1=NNC(=O)C1CC(=O)N/N=C/c1c(O)ccc2ccccc12 (centres undefined),-20.7%
14,CNc1nc2nonc2nc1Nc1ccc(C)c(C)c1,15%
15,O=C1CC(=O)N(Cc2ccccc2)CCN1Cc1ccccc1,4.9%
16,Nc1ccc2nc(SCc3ccc(Cl)cc3)sc2c1,4.4%
17,COc1cc(Cl)cc(/C=C2/C(=O)NC(=O)N(c3cccc(C)c3)C2=O)c1O,-9.5%
18,CC(C)(C)OC(=O)COc1ccc2cc(-c3nc4ccccc4s3)c(=O)oc2c1,92%
19,Cc1cc(NC(=O)Nc2cccc(F)c2)no1,-5.8%
20,O=[N+]([O-])c1cccc(S(=O)(=O)Nc2ccc(Cl)c(Cl)c2)c1,-6%
21,Cc1cc(Cl)ccc1OCC(=O)NCC1CCCO1 (centres undefined),1.4%
22,C=CCSc1nc2ccccc2n1C(=O)CCCN1C(=O)c2cccc3cccc(c23)C1=O,-13.4%

row,Compound,displacement
1,COc1cc(OC)cc(C(=O)N2CCN(Cc3ccccn3)CC2)c1,-20.2%
2,CC(C)(C)NC(=O)C(=O)N/N=C/c1ccc(Br)cc1,1.6%
3,Brc1cc2c(cc1/C=N/Nc1nc(N3CCOCC3)nc(N3CCOCC3)n1)OCO2,20.2%
4,COC(=O)c1cc(NC(=O)c2ccc(OC)c(Br)c2)cc(C(=O)OC)c1,1.7%
5,CN1CCN(c2nc(-c3ccncc3)nc3ccccc23)CC1,8.7%
6,COc1ccc(NC(=O)c2cnn3c2NC(c2ccc(F)cc2)CC3C(F)(F)F)c(OC)c1 (centres undefined),-1.1%
7,COc1cc(NC(=O)c2ccc(Cl)cc2)c(Cl)cc1NC(=O)c1cccs1,-5.7%
8,CC(=O)NS(=O)(=O)c1ccc(NC(=O)/C=C/c2ccc(C(C)(C)C)cc2)cc1,-0.1%
9,O=C(Nc1nc(-c2ccc([N+](=O)[O-])cc2)cs1)c1ccccc1F,113%
10,COc1ccc(/C=N/NC(=O)c2cccc([N+](=O)[O-])c2)cc1Br,1.2%
11,CS(=O)(=O)N(CC(=O)N1CCCC1)c1ccc(Oc2ccccc2)cc1,-0.7%
12,Cc1cc(C)nc(SCC(=O)N2c3ccccc3Sc3ccc(C(F)(F)F)cc32)n1,6.3%
13,CNC(=O)c1c(-c2ccccc2)oc2ccc(OC)cc12,6.7%
14,COc1ccc(C(=O)N/N=C/c2ccc(N3CCOCC3)o2)cc1OC,-0.4%
15,CCOc1ccccc1NC(=O)c1c(NC(=O)c2ccccc2Br)sc2c1CCC2,-7.2%
16,Cc1ccc(S(=O)(=O)NC(=O)c2ccccc2)cc1C(C)C,13.3%
17,CCN(CC)C(=O)c1sc(NC(=O)/C=C/C(=O)O)c(C(=O)OC)c1C,-0.2%
18,O=C1C2CCCCC2C(=O)N1c1ccc2[nH]c(=S)sc2c1 (centres undefined),-28.4%
19,COc1ccc(C(NC(=O)/C=C\c2cccc([N+](=O)[O-])c2)c2ccc(OC)c(OC)c2)cc1OC,-3%
20,Cc1cc2nc(-c3ccc(NC(=O)c4cccnc4)cc3O)oc2cc1C,-8.9%
21,Cc1cc(=O)oc2cc3cc(C)n(C)c3cc12,9.3%
22,CCCCCc1nnc(NC(=O)CCCC)s1,-3.5%

row,Compound,displacement
1,CC(C)(C)c1cc(N2C(=O)C(=O)/C(=C(\O)c3ccccc3)C2c2ccccc2F)no1 (centres undefined),0.4%
2,CN1C(=O)/C(=C2\SC(=S)N(c3ccccc3)C2=O)c2ccccc21,-6.8%
3,O=C(Nc1ncccc1Cl)c1cccc(Cl)c1,-0.6%
4,O=C(Nc1ccc(-c2nc3ccccc3s2)cc1)c1cc(Br)ccc1Cl,-8.4%
5,NC(=O)CSc1nc2ccc(NC(=O)c3ccccc3)cc2s1,-5.8%
6,O=C(/C=C/c1ccco1)N1CCN(C/C=C/c2ccccc2)CC1,-3.8%
7,O=C(CSc1nnnn1-c1ccccc1)Nc1cccc([N+](=O)[O-])c1,-0.6%
8,CC(C)(C)c1ccc(S(=O)(=O)Nc2cc(Cl)ccc2Cl)cc1,12.4%
9,COc1ccc(Cl)cc1NC(=O)NS(=O)(=O)c1ccc(C)cc1,16.9%
10,O=C(Nc1ccccc1)c1ccc(S(=O)(=O)N2CCCc3ccccc32)cc1,-7.8%
11,CCOc1cc(/C=C(/C#N)C(N)=O)cc(Br)c1O,-101%
12,COc1ccccc1CC(=O)N1CCN(c2ccc(F)cc2)CC1,9.5%
13,COc1ccccc1C(=O)N1CCN(C(=O)COc2ccc(Cl)cc2)CC1,15%
14,CS(=O)(=O)N(CC(=O)Nc1ccccc1)c1ccc(Br)cc1,-4.4%
15,COc1ccc(N=Cc2ccc(Br)s2)c([N+](=O)[O-])c1,-0.7%
16,CCN=C1SC(CC(=O)Nc2cccc(C(F)(F)F)c2)C(=O)N1CC (centres undefined),-3.3%
17,CN1C(=O)C(=Cc2cn(CC(=O)Nc3ccccc3)c3ccccc23)C(=O)N(C)C1=O,-6.8%
18,CCOC(=O)C1=C(C)NC(=O)NC1c1cc(OC)c(OC)c(OC)c1 (centres undefined),9.3%
19,CCCOc1ccccc1NC(=O)CC1Nc2cc(C)c(C)cc2NC1=O (centres undefined),-11.4%
20,CCC1=NN2C(=N)/C(=C\c3ccc(N(CC)CC)cc3)C(=O)N=C2S1,-67.5%
21,CC1=C(C(=O)Nc2ccc(Br)cc2)C(c2ccc(F)cc2)NC(=S)N1 (centres undefined),12.5%
22,Cc1cc(=O)oc2ccc(OCC(=O)Nc3ccc(S(=O)(=O)O)cc3)cc12,0.4%

row,Compound,displacement
1,COc1ccc(S(=O)(=O)N(CCO)Cc2ccccc2)cc1,-15.3%
2,CCOc1ccc(NC(=O)c2c(-c3ccccc3Cl)noc2C)c([N+](=O)[O-])c1,-6.9%
3,O=[N+]([O-])c1ccc(N2CCN(S(=O)(=O)c3ccc(Cl)cc3)CC2)cc1N1CCOCC1,9.3%
4,O=C(NN1C(=O)/C(=C/c2ccccc2)SC1=S)c1cccc(Cl)c1,-3%
5,O=C(/C=C/c1ccccc1)Nc1nnc(-c2cccs2)s1,1.4%
6,COc1cccc(/C=N/NC(=O)CCc2c(C)n[nH]c2C)c1,-2.6%
7,Cc1cc(N2CCOCC2)c2c(N)ccc(C)c2n1,17.3%
8,CCOC(=O)CCC(C(=O)C(C)C)C(=O)C(C)(C)OC (centres undefined),3.9%
9,COc1ccc(/C=C/C(=O)Nc2ccc(C)cc2C)cc1OC,-3%
10,COc1ccc(N2C(=O)CC(SC(=N)N3N=C(c4ccc(C)cc4)CC3c3ccc(Br)cc3)C2=O)cc1 (centres undefined),-1.8%
11,CCOC(=O)c1cc2c(ccc3oc4c(c32)CCCC4)oc1=O,1.8%
12,CCOc1ccc(NC(=O)C2CC2(c2ccccc2C)c2ccccc2C)cc1 (centres undefined),0.1%
13,CN(C)c1ccc(NC(=O)COc2ccc3ccccc3c2)cc1,5.6%
14,COc1ccccc1C1CC(c2c(-c3ccccc3)c3cc(Br)ccc3[nH]c2=O)=NO1 (centres undefined),9.2%
15,Cc1c(C(=O)N(Cc2ccccc2)Cc2ccccc2)cccc1[N+](=O)[O-],-12.3%
16,CCOc1cc(/C=c2\sc3n(c2=O)C(c2cccc(OC)c2)C(C(=O)Nc2ccccc2)=C(C)N=3)ccc1O (centres undefined),12.6%
17,O=C(COc1ccc(Cl)cc1)N1CCN(C(=O)c2ccncc2)CC1,13.8%
18,COc1ccc(NS(=O)(=O)c2cc(C(=O)O)ccc2Br)cc1,-5.8%
19,O=C(Nc1ccccc1C(=O)NC(Cc1ccccc1)C(=O)O)c1ccccc1 (centres undefined),12.1%
20,COc1ccccc1C(=S)N1CCOCC1,8.6%
21,COc1cc(C#CC#CCN2CCOCC2)ccc1O,5.8%
22,O=C(NCc1ccc(Cl)cc1)c1cccc(I)c1,10.3%

row,Compound,displacement
1,Cc1ccc(N2C(=O)CC(NC3CCCC(C)C3C)C2=O)cc1 (centres undefined),9.7%
2,CC(=O)Nc1ccccc1NC(=O)COc1ccc(Cl)cc1Br,-1.3%
3,Cc1nnc(C)n1/N=C\c1ccc(F)cc1,-0.6%
4,COc1ccc(C(=O)NCCSc2ccc(C)cc2)cc1,-8.2%
5,O=C(c1cccc(F)c1)N1CCN(c2cc(N3CCCC3)c(F)cc2[N+](=O)[O-])CC1,6.6%
6,Cc1[nH]n(-c2ccc(Br)cc2)c(=O)c1C=Nc1ccc(S(=O)(=O)Nc2nccs2)cc1,8.9%
7,C#CCOc1nc(N(c2ccccc2)c2ccccc2)nc(-n2c(C)nc3ccccc32)n1,-2.9%
8,COc1ccc(-c2c(C#N)c(N)nc3c2CCCCC3)cc1OC,-2.3%
9,O=C(C[n+]1ccc(C(=O)NCc2ccccc2)cc1)c1ccc(-c2ccccc2)cc1,11.1%
10,CC1CCN(CCCCOc2ccc(F)cc2)CC1,-8.5%
11,Cc1cccc(N2C(=O)C3C(c4ccccc4)C=CC(c4ccccc4)C3C2=O)c1C (centres undefined),-0.2%
12,CC(=O)N1C(=O)c2cccc3cccc1c23,-9%
13,O=C(Oc1ccc(/C=N/NC(=O)C(O)c2ccccc2)cc1)c1cccc2ccccc12 (centres undefined),2.4%
14,O=C(Cn1c(C(=O)c2ccccc2)nc2ccccc21)c1ccc(Br)cc1,-4.7%
15,Cc1ccc2c(N)c(C(=O)c3ccccc3)sc2n1,4.6%
16,COc1ccc(C(=O)Nc2cc(C(F)(F)F)cc(C(F)(F)F)c2)cc1Cl,7.8%
17,CCOc1ccc(N2C(=O)S/C(=C\c3ccc(C)o3)C2=O)cc1,108%
18,CCOc1cccc(C(=O)Nc2nnc(COc3ccc(Cl)cc3)s2)c1,13%
19,COc1ccccc1NC(=O)/C=C/c1cc(Br)cs1,8.2%
20,CCCC(=NC(C)C)C1=C(O)CC(C)(C)CC1=O,5.1%
21,C=CCNC(=O)C1CC(=O)N(c2ccc(Cl)cc2)C1 (centres undefined),6.8%
